Some of the results follow. Many values rest on one well or one pass, so single values are uncertain.
Test system: COLO792
Assay: cell count relative to DMSO control; melanoma cells; higher = more viable cells
Details: library dose: low library concentration; 72 h
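Further: cell number obtained by counting DAPI-stained nuclei in high-throughput microscope images with image analysis software, screen run in 1,536-well plates.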

SMILES	cell count [%]
Cc1cc(Nc2cc(N3CCN(C)CC3)nc(/C=C/c3ccccc3)n2)n[nH]1 + COc1ccc(Cl)c(Nc2nc3ccccc3nc2NS(=O)(=O)c2cccc(NC(=O)C(C)(C)N)c2)c1 [XL147] (first compound 0.04 µM, partner dose 0.8 µM)	84
COc1ccc(C2=N[C@@H](c3ccc(Cl)cc3)[C@@H](c3ccc(Cl)cc3)N2C(=O)N2CCNC(=O)C2)c(OC(C)C)c1 [Nutlin-3] + NC1(c2ccc(-c3nc4ccn5c(=O)[nH]nc5c4cc3-c3ccccc3)cc2)CCC1 [MK2206] (first compound 0.1 µM, partner dose 0.4 µM)	81.1
CC(C)C[C@H](NC(=O)[C@H](Cc1ccccc1)NC(=O)c1cnccn1)B(O)O [Bortezomib] + CS(=O)(=O)CCNCc1ccc(-c2ccc3ncnc(Nc4ccc(OCc5cccc(F)c5)c(Cl)c4)c3c2)o1 [lapatinib] (first compound 0.001 µM, partner dose 0.8 µM)	82.5
CC(C)C[C@H](NC(=O)[C@H](Cc1ccccc1)NC(=O)c1cnccn1)B(O)O [Bortezomib] + C[C@]1(c2nc3c(C(N)=O)cccc3[nH]2)CCCN1 [Veliparib] (first compound 0.001 µM, partner dose 1.4 µM)	97.5
Cc1cc(Nc2cc(N3CCN(C)CC3)nc(/C=C/c3ccccc3)n2)n[nH]1 + COCC[n+]1c2c(n(Cc3cnccn3)c1C)C(=O)c1ccccc1C2=O [YM155] (first compound 0.04 µM, partner dose 0.0004 µM)	89.4
Cc1cn(-c2cc(NC(=O)c3ccc(C)c(Nc4nccc(-c5cccnc5)n4)c3)cc(C(F)(F)F)c2)cn1 [nilotinib] + CC(C)C[C@H](NC(=O)[C@H](Cc1ccccc1)NC(=O)c1cnccn1)B(O)O [Bortezomib] (first compound 0.2 µM, partner dose 0.001 µM)	99.1
Cn1c(=O)n(-c2ccc(C(C)(C)C#N)cc2)c2c3cc(-c4cnc5ccccc5c4)ccc3ncc21 + CN1CCN(c2ccc3nc(-c4c(N)c5c(F)cccc5[nH]c4=O)[nH]c3c2)CC1 [Dovitinib] (first compound 0.004 µM, partner dose 0.1 µM)	81.8
CC(C)C[C@H](NC(=O)[C@H](Cc1ccccc1)NC(=O)c1cnccn1)B(O)O [Bortezomib] + CCCS(=O)(=O)Nc1ccc(F)c(C(=O)c2c[nH]c3ncc(Cl)cc23)c1F [PLX4720] (first compound 0.001 µM, partner dose 0.08 µM)	79.3
Cc1cn(-c2cc(NC(=O)c3ccc(C)c(Nc4nccc(-c5cccnc5)n4)c3)cc(C(F)(F)F)c2)cn1 [nilotinib] + OCc1c[nH]c2ccccc12 [Indole-3-carbinol] (first compound 0.2 µM, partner dose 0.8 µM)	98.8
CC(C)C[C@H](NC(=O)[C@H](Cc1ccccc1)NC(=O)c1cnccn1)B(O)O [Bortezomib] + Cn1c(Nc2ccc(C(F)(F)F)cc2)nc2cc(Oc3ccnc(-c4ncc(C(F)(F)F)[nH]4)c3)ccc21 [CHIR265] (first compound 0.001 µM, partner dose 0.08 µM)	54.7
Cc1cc(Nc2cc(N3CCN(C)CC3)nc(/C=C/c3ccccc3)n2)n[nH]1 + Cn1nnc2c(C(N)=O)ncn2c1=O [temozolomide] (first compound 0.04 µM, partner dose 2 µM)	99
Cc1cn(-c2cc(NC(=O)c3ccc(C)c(Nc4nccc(-c5cccnc5)n4)c3)cc(C(F)(F)F)c2)cn1 [nilotinib] + Cn1nnc2c(C(N)=O)ncn2c1=O [temozolomide] (first compound 0.2 µM, partner dose 2 µM)	90.1

Reference: the supplement of paper PMC4604168 (melanoma cell lines)
